Over roughly 33,000 sequences, “E-score (-0.5 to 0.5)” has its median near -0.011; the highest 2% begin near 0.28. Some of the results follow.
The sequences below were run against T1, Gcr1 (UniProt P07261) (assay: PBM E-score (8-mer binding enrichment) (E-score (-0.5 to 0.5)); higher = stronger / more preferred TF binding; most listed sequences are background and not binding sites). Conditions: protein concentration: 100 nM; construct: GST-full length.
T1 sequence: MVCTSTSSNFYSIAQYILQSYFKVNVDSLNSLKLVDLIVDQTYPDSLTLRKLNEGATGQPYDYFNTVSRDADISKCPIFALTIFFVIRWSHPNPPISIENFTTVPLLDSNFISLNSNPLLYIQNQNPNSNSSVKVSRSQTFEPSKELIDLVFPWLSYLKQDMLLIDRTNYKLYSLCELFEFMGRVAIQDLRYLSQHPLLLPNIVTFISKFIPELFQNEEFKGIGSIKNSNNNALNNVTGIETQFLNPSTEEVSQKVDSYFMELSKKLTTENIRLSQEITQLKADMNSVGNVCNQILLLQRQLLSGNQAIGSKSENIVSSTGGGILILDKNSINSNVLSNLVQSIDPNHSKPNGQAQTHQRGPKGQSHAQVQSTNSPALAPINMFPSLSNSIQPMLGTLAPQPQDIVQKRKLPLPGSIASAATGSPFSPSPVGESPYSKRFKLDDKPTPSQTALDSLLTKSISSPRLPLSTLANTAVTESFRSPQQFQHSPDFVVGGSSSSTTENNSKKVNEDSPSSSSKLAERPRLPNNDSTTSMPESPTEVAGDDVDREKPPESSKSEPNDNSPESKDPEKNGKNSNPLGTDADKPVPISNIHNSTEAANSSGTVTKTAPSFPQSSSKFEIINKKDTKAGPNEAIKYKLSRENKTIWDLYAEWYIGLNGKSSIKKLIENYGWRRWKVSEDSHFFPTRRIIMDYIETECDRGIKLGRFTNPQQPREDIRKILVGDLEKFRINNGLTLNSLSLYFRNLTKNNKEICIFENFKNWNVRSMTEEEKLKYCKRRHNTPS
Summary of the method: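 PURExpress in vitro transcription/translation supplied GST-tagged yeast transcription factors, either full-length or DNA-binding domain. Applied at about 100-200 nM to universal all-10-mer Agilent arrays double-stranded by primer extension, the bound protein was detected with fluorescent anti-GST. E-scores, modified Wilcoxon-Mann-Whitney statistics, were given by the Universal PBM Analysis Suite to ungapped eight-base words pooled with their reverse complements after masliner normalisation.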

Sequence	PBM E-score
CCTGCTGA	0.104
CCCCTCTA	-0.104
TCAGAAAA	-0.105
GAGCAAGC	-0.213
AACTACAG	0.0331
ACTTCTTC	0.168
AGGGGGAA	0.0613
AATCTAGT	0.161
CGCTTGAC	0.0373
GACCCTAA	-0.0305
GAGTTTAA	-0.00268
CGTATTAC	-0.034
CGGATGAC	0.0341
CTCTGAAC	-0.0346
CGCATTGA	-0.0263
ATTCAGGG	0.123
CTAGCCTC	0.00493
GAATTGAA	-0.0437
ACCAGTGA	0.0553
CAGCGGCA	-0.0336
GCGTATCA	0.0787
AAGTCCAC	-0.163
ACTGAGCG	-0.0503
GGCGTGAA	-0.0836
CCACTGTA	0.163

Sequence	PBM E-score
AATCGGAC	0.0387
GGCTACAA	0.253
ACGAATGA	0.0208
ACGACGTG	-0.117
CACACTAG	-0.116
TGACAGCA	-0.0525
CGACTTGA	-0.0147
GCGGCATA	-0.0216
AACTCCTC	-0.106
ATGGAGCA	-0.0672
GCCCTACC	0.0531
CCGCCGTC	-0.124
GCCTACCC	-0.199
ATCGGAAA	0.0318
GTTCAAGA	-0.0251
ATGGTGGG	0.0037
CGCGCAGA	-0.0847
AGGACATC	0.00599
CAGGCGAG	-0.149
TACTTACA	-0.00444
TAATGAAA	0.227
AACCTTAG	0.0219
TGTGCTAA	0.0627
GGACTTTA	-0.117
AACTCTCG	-0.17

Sequence	PBM E-score
TCGTGAAA	0.166
TAAATACA	0.161
GGACCCGA	0.045
GTGACAAA	-0.0825
ATGGTGCC	0.227
AGCAGGGG	0.00965
CGGCAGAC	-0.254
AGCGGTTG	0.107
ACCAACGG	-0.0789
AAATAATA	0.122
AACGTGCT	-0.00283
GCACCCGA	0.25
AGACTTAT	-0.267
CAGTTATG	0.123
AGGCGTCG	-0.0284
CCCCGCCA	-0.017
AGTATGCG	0.104
GAACTCAA	0.0766
CTGTGCTC	-0.0397
CACAGTCC	-0.216
AATTCAGC	0.03
ATCCTGGC	0.0795
AGCACGAC	-0.0361
AATTTTGT	0.109
GCACTAAC	-0.0146

Sequence	PBM E-score
GAAAGGGA	-0.00796
AGCGGCTG	0.0579
AACAATCT	0.0862
TGACATAA	0.0198
AAGGTAAA	0.0141
CGCGTCGC	-0.148
ACCATTAT	0.0956
AATGCGAG	0.0217
GCACCTAA	0.212
AGTCGGTG	-0.206
CACGATGG	-0.22
AGAAGTGG	0.243
TATTAACA	0.11
TAAACGAA	0.0477
AGATGACC	-0.193
CTTAACCA	-0.112
ATGAAGGC	0.0308
CGCCCTCA	-0.104
CGCAAGCA	-0.101
ACATGTAT	-0.0992
GGACTAGA	0.0871
ACGCGAAT	0.108
AACATAGA	0.0879
CATGTGAC	-0.11
AACTTCTT	0.163

Sequence	PBM E-score
ACCGCAGG	-0.0609
CGTGCGAA	0.152
GCCTTCGC	-0.11
AGGGCGAT	-0.293
CCATATCC	-0.179
AGCAGACT	0.0173
ACCCGGCG	0.151
TATATACA	0.0077
CAAGGCAA	-0.269
GGTACGTA	-0.0286
ACCCAAAA	0.184
GAATTTAC	-0.0208
ACAATGAC	-0.131
CGCCTGAA	0.143
AGGGGGTG	-0.271
ATAGGTCA	-0.0137
ACATACGT	0.0187
CACACCCC	-0.137
CTATTTCC	-0.00725
CAGACTGA	-0.157
GCTCGAGC	0.321
AATAACTG	0.181
GACAAGGC	-0.252
ACGGGAAA	0.0869
ACAGGCTG	-0.0906

Sequence	PBM E-score
AATCACAG	-0.0603
CAATTACG	-0.0206
CTGAAACC	0.0577
AAACAAAT	-0.135
GCAAAACC	-0.116
AACCACCC	0.0809
ACTGATCC	-0.0723
GACTATAA	0.0534
AAAACGGT	-0.0493
GCCCAGCC	-0.225
ATTTTGAC	-0.0399
CTACCGAC	-0.0695
CGTCCCGA	-0.0204
CAGAACGG	0.0548
ACACGTAT	0.0678
CCCTAGAA	0.0917
ACGCCGCG	0.157
TACGCGGA	-0.0111
AACTGCTT	0.0237
CGGAAATA	0.182
ATTGGTTA	0.0401
AATAGCCC	-0.144
ACGATCAC	-0.178
ATGCTGGC	-0.019
AAGTACCT	0.12

Sequence	PBM E-score
CGAAATTC	0.127
CCCGAACA	-0.00034
GGTTGCAA	0.0837
AGAATGTA	-0.0524
CTGCTTTC	0.0643
ATGGACAC	-0.13
AAGTAAAT	0.0668
AGCAAGAG	-0.0351
ACGCCGGC	0.0311
GCATATGC	-0.0738
AGGTAGCG	0.157
TACACATA	-0.056
AGGGCTGA	-0.242
ACTGAACA	0.0177
GAGGATAA	0.0272
GAAAAGAA	0.0753
AGCTGTGC	-0.276
AAGCATGC	-0.205
CAGGATGC	0.446
CGGTAGCA	-0.0732
ACGCGGCA	0.112
AGGGCCGA	-0.281
TCTGCAGA	-0.194
TCTACGAA	0.0885
GTATTTAA	0.117

Sequence	PBM E-score
CGACTAAG	-0.294
GGCACACC	-0.0829
ATTTTCCC	-0.0691
AGTGGGAG	0.256
AGTGTCGC	-0.00959
ACAACCTG	0.0338
ATAGATAT	-0.0152
ATACACCA	0.014
GCCTCGAC	-0.213
ACGTAAGG	-0.279
CTCGTACC	0.105
CCATACTA	0.0399
AGATCTAG	-0.103
AGCATACT	-0.0455
ATTTGATA	-0.0185
ACCGTAGC	-0.097
GTGTCCAA	0.0511
GTAATTAC	0.064
GCGGGTGA	-0.181
GTTTTAAA	0.0194
CAGAAGCG	0.223
CGTGCGGC	-0.106
GGAGAATA	-0.0709
ACCTCATG	-0.107
GCCGCAGC	0.0591

Sequence	PBM E-score
CTGTTATC	0.0231
ACGCTGGA	0.0355
CAGGGAGG	-0.257
CCACGACA	-0.258
TAGTTGCA	0.00472
GATATTTA	0.0473
CGTCAACC	-0.199
ACGGACGC	0.14
GTTGGCCA	-0.246
GAACGAGA	-0.0744
ACCGCGCA	-0.136
CAACGCGA	-0.104
ATTCGGTC	-0.026
GAGACAGA	-0.0415
CCACTACG	0.323
GGTGGGCA	0.0687
AAACGTCA	-0.0971
TTTACAAA	0.15
AGATGGTG	0.00702
